Test results taken from patent US20250152714A1 (IMMUSOFT, published 2025).

Biological target: T1, PSMA on PSMA-expressing CHO cells (UniProt Q04609)
T1 construct: whole, on cells; also called PSMA-CHO
Assay: flow cytometry, hISP culture supernatant on PSMA-expressing CHO cells

T1 sequence (Q04609 whole entry): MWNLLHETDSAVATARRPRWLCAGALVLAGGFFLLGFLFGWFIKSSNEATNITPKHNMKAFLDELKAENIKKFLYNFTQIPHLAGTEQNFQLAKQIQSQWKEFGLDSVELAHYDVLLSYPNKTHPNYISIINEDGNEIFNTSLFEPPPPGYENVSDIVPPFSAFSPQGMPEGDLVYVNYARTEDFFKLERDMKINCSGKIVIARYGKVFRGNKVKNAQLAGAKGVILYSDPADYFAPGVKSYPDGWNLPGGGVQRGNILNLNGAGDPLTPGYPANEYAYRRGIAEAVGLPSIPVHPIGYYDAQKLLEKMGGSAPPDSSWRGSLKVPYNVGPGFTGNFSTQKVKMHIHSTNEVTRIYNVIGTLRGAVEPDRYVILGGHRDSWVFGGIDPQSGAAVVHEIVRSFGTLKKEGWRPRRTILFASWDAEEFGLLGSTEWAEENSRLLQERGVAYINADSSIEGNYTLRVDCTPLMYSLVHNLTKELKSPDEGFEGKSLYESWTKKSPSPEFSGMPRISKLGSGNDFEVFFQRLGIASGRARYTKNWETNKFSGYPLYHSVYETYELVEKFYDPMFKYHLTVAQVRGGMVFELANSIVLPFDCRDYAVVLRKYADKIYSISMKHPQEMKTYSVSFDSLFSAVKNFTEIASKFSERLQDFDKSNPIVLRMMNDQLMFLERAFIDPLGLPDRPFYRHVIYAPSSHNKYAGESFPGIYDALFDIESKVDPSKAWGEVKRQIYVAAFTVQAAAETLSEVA

B1: Herceptin scFv (anti-HER2 scFv-G1Fc) (Fc fusion)
scFv: not shown
notes: also called Herceptin scFv-Ig
binding result: no binding
